This is one part of the list. The data describe in vitro nicking of single-stranded DNA by Rep domains for 1 h at 37 °C with 3 µM enzyme; only the middle of the 90-letter strands is printed. Values are log2 of uncut reads against the no-enzyme pool; the lower, the more was cut; hits are not called. Reads are scaled to the total, so uncut sequences can rise above 0 when many others are cut.
Test system: T1, Rep nickase domain of maize striate mosaic virus
T1 sequence (residues 1-117 of Rep, tag left off): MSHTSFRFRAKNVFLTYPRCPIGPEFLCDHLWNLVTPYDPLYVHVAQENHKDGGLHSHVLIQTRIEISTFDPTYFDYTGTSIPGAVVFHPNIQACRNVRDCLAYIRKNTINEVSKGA
Assay: uncleaved DNA left, log2 of reads against the no-enzyme library (log2 ratio); higher = less cleavage (more negative = more Rep cleavage of the k-mer); sequences stand for … in CTCGTCCG…ACCGGAGA
Experimental: (§1)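 A pool of 90-nt single-stranded DNAs with seven random bases just before the constant AC of the nick site (name = the seven bases) was cut by 3 µM recombinant His6-SUMO-tagged Rep nickase domain (300 nM DNA, 50 mM HEPES pH 8.0, 50 mM NaCl, 1 mM MnCl2, 1 h, 37 °C, three replicates). Uncut DNA was amplified and sequenced.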

Sequence | uncleaved DNA left (log2)
GAAGGGA | 0.869
TTAGGTT | 1.72
ATGTATG | -1.12
GTAGTCA | 1.57
ACCTTAG | -0.62
GACTTCG | -0.985
ACACATG | -0.753
GAAATGT | 0.342
TAAGAAG | -1.02
TGTAATC | 0.876
CCTCACA | -0.654
TATATAA | -0.4
TCTATTG | -1.02
ATATGAC | -0.39
CAAGAGA | -0.507
AGTCGTT | -0.225
TTCTTAG | -1.24
AAAAAGC | -1.08
AGCGGTC | 0.547
CAACTTC | -0.862

Sequence | uncleaved DNA left (log2)
ACACAGC | -0.871
TCTGACA | 0.53
TCTGGGA | -0.155
AAATTTC | -1.92
AACTGGA | 0.251
CTACTAA | -0.752
GCATGTC | -0.302
CTGGCTT | 0.0286
ACGAGGG | -0.96
TTACAGG | 1.44
CTCGTAT | -0.257
TAATCGT | -3.23
GGTTTCT | 1.6
CCACGAC | -0.836
ATTTCAC | -0.857
CAAGTCC | -0.441
TAACAGT | -1.11
GCCTGAT | 0.873
CTTGCCC | -0.974
CTACATA | -0.49

Test system: T2, Rep nickase domain of porcine circovirus 2
T2 sequence (residues 2-116 of Rep, tag left off): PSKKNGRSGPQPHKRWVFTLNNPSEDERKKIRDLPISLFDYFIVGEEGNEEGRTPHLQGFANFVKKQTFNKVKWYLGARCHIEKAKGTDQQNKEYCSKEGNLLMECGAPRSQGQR
Assay: as above
Experimental: as §1

Sequence | uncleaved DNA left (log2)
GAAGGGA | 0.119
TTAGGTT | -0.0095
ATGTATG | 0.00267
GTAGTCA | 0.0387
ACCTTAG | 0.214
GACTTCG | 0.0993
ACACATG | 0.16
GAAATGT | -0.225
TAAGAAG | 0.26
TGTAATC | 0.0874
CCTCACA | -0.0446
TATATAA | 0.0785
TCTATTG | 0.0803
ATATGAC | 0.142
CAAGAGA | 0.078
AGTCGTT | -3.1
TTCTTAG | 0.1
AAAAAGC | 0.319
AGCGGTC | -0.222
CAACTTC | -0.209

Sequence | uncleaved DNA left (log2)
ACACAGC | 0.151
TCTGACA | 0.0234
TCTGGGA | 0.0718
AAATTTC | -1.22
AACTGGA | -1.03
CTACTAA | -0.0456
GCATGTC | 0.0854
CTGGCTT | -0.389
ACGAGGG | 0.185
TTACAGG | 0.0235
CTCGTAT | 0.0346
TAATCGT | -3.61
GGTTTCT | -0.531
CCACGAC | -0.0119
ATTTCAC | 0.0323
CAAGTCC | 0.00273
TAACAGT | -0.152
GCCTGAT | -1.05
CTTGCCC | -0.0514
CTACATA | -0.0843

Test system: T3, Rep nickase domain of tomato golden mosaic virus
T3 sequence (residues 1-124 of Rep, tag left off): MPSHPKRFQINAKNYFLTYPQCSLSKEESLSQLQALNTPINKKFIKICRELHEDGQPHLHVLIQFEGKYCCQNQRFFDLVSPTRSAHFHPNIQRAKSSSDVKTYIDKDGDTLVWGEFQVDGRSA
Assay: as above
Experimental: as §1

Sequence | uncleaved DNA left (log2)
GAAGGGA | 0.122
TTAGGTT | 0.124
ATGTATG | -0.0601
GTAGTCA | -0.0286
ACCTTAG | -0.044
GACTTCG | -0.115
ACACATG | 0.00236
GAAATGT | -0.00945
TAAGAAG | 0.104
TGTAATC | -0.00999
CCTCACA | -0.127
TATATAA | 0.125
TCTATTG | 0.031
ATATGAC | 0.0457
CAAGAGA | 0.0898
AGTCGTT | 0.0314
TTCTTAG | -0.0667
AAAAAGC | 0.157
AGCGGTC | -0.00903
CAACTTC | -0.0305

Sequence | uncleaved DNA left (log2)
ACACAGC | -0.0176
TCTGACA | 0.153
TCTGGGA | -0.0956
AAATTTC | -1.11
AACTGGA | 0.107
CTACTAA | -0.133
GCATGTC | 0.0413
CTGGCTT | -0.294
ACGAGGG | 0.138
TTACAGG | 0.0394
CTCGTAT | 0.115
TAATCGT | -4.13
GGTTTCT | -0.0222
CCACGAC | -0.0506
ATTTCAC | -0.113
CAAGTCC | -0.0647
TAACAGT | -0.309
GCCTGAT | 0.0776
CTTGCCC | -0.199
CTACATA | -0.107

Test system: T4, Rep nickase domain of tomato yellow leaf curl virus
T4 sequence (residues 1-136 of Rep, tag left off): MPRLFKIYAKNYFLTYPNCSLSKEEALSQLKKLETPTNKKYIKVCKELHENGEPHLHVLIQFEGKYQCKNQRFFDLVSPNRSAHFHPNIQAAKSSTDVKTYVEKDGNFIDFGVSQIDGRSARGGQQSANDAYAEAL
Assay: as above
Experimental: as §1

Sequence | uncleaved DNA left (log2)
GAAGGGA | 0.0865
TTAGGTT | -0.00302
ATGTATG | -0.186
GTAGTCA | -0.00433
ACCTTAG | 0.0745
GACTTCG | -0.0221
ACACATG | 0.148
GAAATGT | -0.0305
TAAGAAG | 0.0811
TGTAATC | 0.055
CCTCACA | 0.0106
TATATAA | 0.123
TCTATTG | -0.0914
ATATGAC | 0.0434
CAAGAGA | 0.0118
AGTCGTT | 0.0293
TTCTTAG | -0.0373
AAAAAGC | 0.164
AGCGGTC | -0.0747
CAACTTC | 0.153

Sequence | uncleaved DNA left (log2)
ACACAGC | 0.076
TCTGACA | 0.0068
TCTGGGA | -0.0255
AAATTTC | -0.0822
AACTGGA | -0.127
CTACTAA | -0.0529
GCATGTC | 0.0802
CTGGCTT | -0.0469
ACGAGGG | -1.79e-05
TTACAGG | -0.0972
CTCGTAT | 0.0877
TAATCGT | -0.185
GGTTTCT | 0.104
CCACGAC | -0.176
ATTTCAC | -0.132
CAAGTCC | -0.107
TAACAGT | 0.00734
GCCTGAT | -0.0863
CTTGCCC | -0.0659
CTACATA | -0.0523

Test system: T5, Rep nickase domain of wheat dwarf virus
T5 sequence (residues 1-137 of Rep, tag left off): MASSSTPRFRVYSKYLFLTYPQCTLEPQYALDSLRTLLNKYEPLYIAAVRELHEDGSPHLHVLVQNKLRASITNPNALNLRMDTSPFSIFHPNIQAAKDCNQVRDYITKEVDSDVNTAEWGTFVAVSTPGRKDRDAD
Assay: as above
Experimental: as §1

Sequence | uncleaved DNA left (log2)
GAAGGGA | 0.0727
TTAGGTT | 0.0218
ATGTATG | -0.0609
GTAGTCA | 0.0294
ACCTTAG | 0.0164
GACTTCG | -0.0498
ACACATG | -0.129
GAAATGT | -0.0825
TAAGAAG | 0.00716
TGTAATC | 0.145
CCTCACA | -0.0685
TATATAA | 0.0904
TCTATTG | -0.0364
ATATGAC | -0.0639
CAAGAGA | 0.105
AGTCGTT | 0.0697
TTCTTAG | -0.092
AAAAAGC | 0.0912
AGCGGTC | 0.0085
CAACTTC | -0.019

Sequence | uncleaved DNA left (log2)
ACACAGC | 0.025
TCTGACA | 0.0171
TCTGGGA | -0.0479
AAATTTC | -1.29
AACTGGA | -0.0102
CTACTAA | -0.0303
GCATGTC | 0.0212
CTGGCTT | -0.185
ACGAGGG | -0.0488
TTACAGG | 0.0121
CTCGTAT | 0.21
TAATCGT | -3.88
GGTTTCT | 0.0226
CCACGAC | -0.12
ATTTCAC | -0.0966
CAAGTCC | -0.0283
TAACAGT | -0.748
GCCTGAT | 0.00388
CTTGCCC | -0.25
CTACATA | -0.0341

Reference: the supplement of paper PMC7826260
